# Data published in the BET-seq Pho4 binding data (Le et al. 2018).
# The other results are listed elsewhere or left out. The energies were worked out here from pooled read counts, against the library average; single values are noisy.
# Molecular target: T1, Pho4 (S. cerevisiae) (UniProt P07270)
# T1 sequence: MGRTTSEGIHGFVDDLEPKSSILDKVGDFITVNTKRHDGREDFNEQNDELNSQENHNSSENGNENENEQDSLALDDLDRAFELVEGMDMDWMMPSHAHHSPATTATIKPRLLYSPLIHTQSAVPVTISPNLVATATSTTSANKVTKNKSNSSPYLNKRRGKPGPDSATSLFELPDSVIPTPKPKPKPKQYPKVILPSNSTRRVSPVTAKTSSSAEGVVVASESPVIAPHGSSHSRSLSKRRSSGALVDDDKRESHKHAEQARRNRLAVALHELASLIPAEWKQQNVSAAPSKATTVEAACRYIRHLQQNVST
# Assay: relative binding free energy (BET-seq); higher = weaker binding
# Details: reference: library average
row,Sequence,relative binding free energy [kcal/mol]
1,AGGTGCACGTGTAGGG,-0.01
2,TGTCTCACGTGGGTAA,-0.06
3,GGTTACACGTGTTGTG,0.06
4,GTGGACACGTGTGCTG,-0.13
5,CGGAGCACGTGTGGGG,-0.1
6,ATCGTCACGTGGGGGA,0.03
7,TATATCACGTGGTAGG,0.09
8,TGAAACACGTGGGCGT,-0.12
9,TGTTTCACGTGGTGCG,0.2
10,TTGGTCACGTGGGGCT,0.04
11,CTTGACACGTGGTATT,-0.1
12,TTCGTCACGTGAGGCT,0.36
13,TGTACCACGTGAGTTG,0.1
14,CGGGGCACGTGTTCAT,-0.05
15,ACTTTCACGTGGGGAG,0.06
16,GTAGGCACGTGGAGAA,-0.07
17,TTGTTCACGTGGGTGG,0.24
18,TGTTTCACGTGGGCCG,0.19
19,ATAAACACGTGGTTAG,-0.01
20,GCTAACACGTGGTTGT,0.04
21,TGGAACACGTGGAGAA,0.18
22,GTGCTCACGTGTGGTC,0.27
23,AAAGGCACGTGATATT,0.07

row,Sequence,relative binding free energy [kcal/mol]
1,GATTGCACGTGAATTT,0.35
2,TTGTTCACGTGCTGAG,0.25
3,ATGGCCACGTGTCAGT,-0.03
4,CCGGACACGTGGTGTG,-0.11
5,ATGTACACGTGGGTTA,-0.03
6,GGAGGCACGTGTTTCA,0.12
7,GGAGGCACGTGGCTTT,-0.06
8,GCTGGCACGTGTTGAG,-0.09
9,TTAGGCACGTGACTTA,-0.04
10,ATGGCCACGTGAAGGC,0.36
11,GTGACCACGTGTTAGG,-0.07
12,CTATGCACGTGGAGTG,-0.13
13,TTTACCACGTGAGATG,0.43
14,GCGTGCACGTGTGATA,0.09
15,TGTGGCACGTGTAACA,0.06
16,GTTATCACGTGGTTAG,0.11
17,CATGTCACGTGATTTT,0.18
18,GGGTTCACGTGAATGC,0.44
19,TAAGTCACGTGAGGCT,0.25
20,AGTCGCACGTGGTGGC,-0.15
21,GGGTTCACGTGATAAT,0.49
22,CATGTCACGTGGGGTA,-0.04
23,CGGGTCACGTGTATGG,0.13

row,Sequence,relative binding free energy [kcal/mol]
1,GGTTTCACGTGAAACG,0.37
2,TAATTCACGTGAAGGT,0.38
3,TTGGTCACGTGCGTGC,-0.05
4,TGAGGCACGTGTAATA,0.01
5,TCTATCACGTGGTGAG,0.16
6,TGAATCACGTGTGTGC,0.06
7,TTTATCACGTGCTAAG,0.1
8,GGGGACACGTGCTGGG,0
9,TAGGCCACGTGGGCTA,-0.15
10,TTCGTCACGTGGTTTT,0.1
11,TCCGGCACGTGAGTGG,0.31
12,ACGGTCACGTGTAGTG,0.06
13,GTGTGCACGTGATTAG,0.25
14,GGGTTCACGTGGCAGC,0.15
15,GTTAGCACGTGTGTTC,-0.04
16,AATTTCACGTGTGCGA,0.22
17,TTATTCACGTGTGGCC,0.34
18,ATGTTCACGTGGCTAT,0.19
19,TAAGACACGTGTGGTT,0.09
20,ATGGTCACGTGATAGC,0.24
21,TATGGCACGTGGGAGA,-0.1
22,TATATCACGTGCATGT,0.08
23,TTCAACACGTGGTTAT,0.04

row,Sequence,relative binding free energy [kcal/mol]
1,TAGGTCACGTGGGATA,0.11
2,TCGCTCACGTGTGGGT,0.08
3,ATTGCCACGTGTTCGT,-0.09
4,GGGGCCACGTGGCGAG,-0.26
5,ATCGTCACGTGTGGGC,0.13
6,TCTAGCACGTGTATAT,0.07
7,GGAGGCACGTGGATGC,-0.08
8,ATAGTCACGTGTGGCT,0.22
9,TGGGTCACGTGAGGGG,0.36
10,ATGGGCACGTGATGCG,-0.07
11,TGTGGCACGTGAAATA,0.16
12,TGTCGCACGTGGGTGC,-0.14
13,TGGTTCACGTGATTGT,0.42
14,TTTAGCACGTGTAGTT,-0.06
15,TAATGCACGTGGTTCG,-0.02
16,GGATCCACGTGTGGTT,0.05
17,TTTCGCACGTGTTCAT,-0.01
18,AAAGTCACGTGCGAGT,0.25
19,GGAACCACGTGGTTTT,0.1
20,CGGCTCACGTGTGGTG,0.07
21,TCGTGCACGTGCGTTG,-0.12
22,AGGTGCACGTGCCGGT,-0.3
23,GTGTCCACGTGGAGTG,0.07

row,Sequence,relative binding free energy [kcal/mol]
1,GTTGTCACGTGAAGGG,0.38
2,TTGGGCACGTGCAGGA,-0.22
3,GTAAACACGTGGTGAG,-0.05
4,GGGTTCACGTGTGGTC,0.36
5,GGTTCCACGTGTTTAG,0.11
6,GGATGCACGTGCGGAG,0.06
7,GAGGTCACGTGAAGGT,0.29
8,AGTTCCACGTGTTGGA,0.03
9,GAATACACGTGGTGGA,0.2
10,GGCATCACGTGGGGCT,0
11,ATTCTCACGTGTGGGT,0.27
12,GGGGTCACGTGTGCAG,0.03
13,GGGAGCACGTGTGCGA,-0.14
14,TTAGGCACGTGGATCG,-0.03
15,GGGATCACGTGTAGGC,0.02
16,GGATGCACGTGGCATG,-0.12
17,TAAGGCACGTGAAGTG,0.11
18,GTTACCACGTGAGTGG,0.13
19,GTTGACACGTGCGTTG,0.04
20,ATGGTCACGTGGACGT,0.08
21,AATGGCACGTGTATAA,-0.01
22,TTTTGCACGTGAAGGA,0.32
23,TGTGGCACGTGTCGTA,-0.01
